Experimental data: paper PMC5239548
Read-outs that look alike come from different tables or passages of the source. No constants are given. Whether binding was seen depends on the method and setting. In cells and extracts the contact can be indirect. Some binding calls cover weakened binding; strength is not graded here. For some of these results: Sequences can lack the tags named with a protein. Values belong to the molecule of their own block, whether it stands above or below them.

Sequences of proteins named here, by UniProt entry; tags and fusion partners are left off. A change or cut given only in a name is not applied to a line headed by its entry.
UniProt Q6PF93: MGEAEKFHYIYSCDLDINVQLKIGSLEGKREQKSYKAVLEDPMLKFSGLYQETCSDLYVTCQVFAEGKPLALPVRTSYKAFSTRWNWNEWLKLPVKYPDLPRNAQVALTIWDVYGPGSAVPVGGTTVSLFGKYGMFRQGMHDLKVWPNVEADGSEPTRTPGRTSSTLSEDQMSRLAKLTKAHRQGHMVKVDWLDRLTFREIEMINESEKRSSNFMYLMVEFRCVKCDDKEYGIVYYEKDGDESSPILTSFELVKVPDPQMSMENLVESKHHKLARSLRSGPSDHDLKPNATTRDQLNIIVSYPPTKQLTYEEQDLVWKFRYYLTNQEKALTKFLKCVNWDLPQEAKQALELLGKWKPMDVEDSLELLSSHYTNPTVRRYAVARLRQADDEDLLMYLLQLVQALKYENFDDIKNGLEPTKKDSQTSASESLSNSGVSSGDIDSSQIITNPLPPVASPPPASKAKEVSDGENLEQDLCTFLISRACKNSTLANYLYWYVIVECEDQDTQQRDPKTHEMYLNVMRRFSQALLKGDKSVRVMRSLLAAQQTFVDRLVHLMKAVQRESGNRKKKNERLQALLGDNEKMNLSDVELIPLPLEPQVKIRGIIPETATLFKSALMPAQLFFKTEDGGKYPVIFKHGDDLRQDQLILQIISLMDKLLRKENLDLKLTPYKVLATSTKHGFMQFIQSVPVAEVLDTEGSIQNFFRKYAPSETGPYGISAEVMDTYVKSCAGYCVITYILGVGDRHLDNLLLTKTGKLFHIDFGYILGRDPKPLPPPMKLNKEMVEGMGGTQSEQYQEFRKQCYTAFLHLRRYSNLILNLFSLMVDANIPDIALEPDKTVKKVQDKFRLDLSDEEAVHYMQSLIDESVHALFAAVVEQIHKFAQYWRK
UniProt Q8NEB9: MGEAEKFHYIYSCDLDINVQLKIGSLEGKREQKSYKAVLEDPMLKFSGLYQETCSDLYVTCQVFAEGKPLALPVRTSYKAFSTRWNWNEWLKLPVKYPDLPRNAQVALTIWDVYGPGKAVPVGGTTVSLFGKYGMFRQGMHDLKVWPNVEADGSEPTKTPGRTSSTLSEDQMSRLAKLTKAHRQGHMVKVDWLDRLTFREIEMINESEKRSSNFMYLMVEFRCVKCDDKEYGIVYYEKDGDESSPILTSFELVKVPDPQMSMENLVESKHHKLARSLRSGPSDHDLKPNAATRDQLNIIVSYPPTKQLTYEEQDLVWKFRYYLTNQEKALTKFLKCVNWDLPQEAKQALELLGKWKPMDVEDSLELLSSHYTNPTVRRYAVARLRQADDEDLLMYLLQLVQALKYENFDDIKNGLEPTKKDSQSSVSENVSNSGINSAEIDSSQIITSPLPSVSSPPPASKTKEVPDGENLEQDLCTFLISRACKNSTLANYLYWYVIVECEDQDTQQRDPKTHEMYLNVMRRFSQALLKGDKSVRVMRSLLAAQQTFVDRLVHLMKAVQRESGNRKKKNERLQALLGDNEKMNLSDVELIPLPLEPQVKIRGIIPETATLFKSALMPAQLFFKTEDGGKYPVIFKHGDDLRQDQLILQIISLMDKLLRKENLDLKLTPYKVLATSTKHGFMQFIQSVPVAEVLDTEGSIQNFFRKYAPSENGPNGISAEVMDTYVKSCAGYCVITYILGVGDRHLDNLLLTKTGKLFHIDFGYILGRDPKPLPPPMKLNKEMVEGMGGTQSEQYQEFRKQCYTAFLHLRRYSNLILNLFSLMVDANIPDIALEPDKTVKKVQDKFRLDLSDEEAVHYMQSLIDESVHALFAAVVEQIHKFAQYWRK
UniProt Q61037: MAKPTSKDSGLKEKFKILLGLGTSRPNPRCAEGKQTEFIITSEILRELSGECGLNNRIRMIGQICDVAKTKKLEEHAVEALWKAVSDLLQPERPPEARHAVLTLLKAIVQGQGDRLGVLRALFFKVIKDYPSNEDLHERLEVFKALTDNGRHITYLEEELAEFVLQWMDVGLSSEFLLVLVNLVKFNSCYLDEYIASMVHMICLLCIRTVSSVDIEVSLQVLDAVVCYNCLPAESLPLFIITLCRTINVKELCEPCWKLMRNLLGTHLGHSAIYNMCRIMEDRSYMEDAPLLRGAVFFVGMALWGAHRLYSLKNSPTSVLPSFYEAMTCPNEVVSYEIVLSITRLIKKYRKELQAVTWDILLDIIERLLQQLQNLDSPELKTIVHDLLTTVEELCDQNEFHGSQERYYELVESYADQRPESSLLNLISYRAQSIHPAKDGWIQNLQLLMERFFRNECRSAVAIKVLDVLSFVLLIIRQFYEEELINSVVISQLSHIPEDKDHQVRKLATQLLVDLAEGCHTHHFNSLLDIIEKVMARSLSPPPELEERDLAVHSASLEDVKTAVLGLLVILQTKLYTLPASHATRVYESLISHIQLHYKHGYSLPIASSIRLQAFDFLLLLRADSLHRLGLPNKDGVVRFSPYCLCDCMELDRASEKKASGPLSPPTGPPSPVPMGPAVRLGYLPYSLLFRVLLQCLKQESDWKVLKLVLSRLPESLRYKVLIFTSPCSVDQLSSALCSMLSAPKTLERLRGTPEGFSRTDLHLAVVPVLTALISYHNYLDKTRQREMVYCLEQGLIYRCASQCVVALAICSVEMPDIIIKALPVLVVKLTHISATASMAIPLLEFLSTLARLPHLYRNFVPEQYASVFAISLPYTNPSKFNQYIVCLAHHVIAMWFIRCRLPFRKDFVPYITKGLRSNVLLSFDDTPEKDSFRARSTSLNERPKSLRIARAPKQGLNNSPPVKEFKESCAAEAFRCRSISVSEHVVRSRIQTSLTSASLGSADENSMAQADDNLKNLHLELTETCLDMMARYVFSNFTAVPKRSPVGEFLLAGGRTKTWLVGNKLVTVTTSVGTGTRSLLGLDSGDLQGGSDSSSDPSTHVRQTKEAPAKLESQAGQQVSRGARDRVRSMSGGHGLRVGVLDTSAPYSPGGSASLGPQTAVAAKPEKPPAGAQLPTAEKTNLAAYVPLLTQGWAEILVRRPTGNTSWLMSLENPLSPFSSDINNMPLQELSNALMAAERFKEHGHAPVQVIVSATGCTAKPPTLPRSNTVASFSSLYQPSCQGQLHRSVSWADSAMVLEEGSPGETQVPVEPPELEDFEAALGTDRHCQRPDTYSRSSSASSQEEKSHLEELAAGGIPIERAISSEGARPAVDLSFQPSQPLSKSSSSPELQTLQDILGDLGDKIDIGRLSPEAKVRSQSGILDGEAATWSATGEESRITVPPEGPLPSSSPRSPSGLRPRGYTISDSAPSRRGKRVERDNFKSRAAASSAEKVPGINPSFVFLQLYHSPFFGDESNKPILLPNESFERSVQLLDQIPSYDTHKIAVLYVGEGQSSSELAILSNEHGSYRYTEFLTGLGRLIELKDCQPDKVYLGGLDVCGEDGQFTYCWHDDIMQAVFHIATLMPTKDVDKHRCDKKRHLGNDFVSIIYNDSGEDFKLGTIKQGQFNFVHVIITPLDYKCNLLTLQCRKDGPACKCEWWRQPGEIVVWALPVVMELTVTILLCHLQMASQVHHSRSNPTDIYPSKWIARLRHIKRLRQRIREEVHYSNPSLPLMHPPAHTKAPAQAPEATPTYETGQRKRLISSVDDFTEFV
UniProt Q9Z1T6: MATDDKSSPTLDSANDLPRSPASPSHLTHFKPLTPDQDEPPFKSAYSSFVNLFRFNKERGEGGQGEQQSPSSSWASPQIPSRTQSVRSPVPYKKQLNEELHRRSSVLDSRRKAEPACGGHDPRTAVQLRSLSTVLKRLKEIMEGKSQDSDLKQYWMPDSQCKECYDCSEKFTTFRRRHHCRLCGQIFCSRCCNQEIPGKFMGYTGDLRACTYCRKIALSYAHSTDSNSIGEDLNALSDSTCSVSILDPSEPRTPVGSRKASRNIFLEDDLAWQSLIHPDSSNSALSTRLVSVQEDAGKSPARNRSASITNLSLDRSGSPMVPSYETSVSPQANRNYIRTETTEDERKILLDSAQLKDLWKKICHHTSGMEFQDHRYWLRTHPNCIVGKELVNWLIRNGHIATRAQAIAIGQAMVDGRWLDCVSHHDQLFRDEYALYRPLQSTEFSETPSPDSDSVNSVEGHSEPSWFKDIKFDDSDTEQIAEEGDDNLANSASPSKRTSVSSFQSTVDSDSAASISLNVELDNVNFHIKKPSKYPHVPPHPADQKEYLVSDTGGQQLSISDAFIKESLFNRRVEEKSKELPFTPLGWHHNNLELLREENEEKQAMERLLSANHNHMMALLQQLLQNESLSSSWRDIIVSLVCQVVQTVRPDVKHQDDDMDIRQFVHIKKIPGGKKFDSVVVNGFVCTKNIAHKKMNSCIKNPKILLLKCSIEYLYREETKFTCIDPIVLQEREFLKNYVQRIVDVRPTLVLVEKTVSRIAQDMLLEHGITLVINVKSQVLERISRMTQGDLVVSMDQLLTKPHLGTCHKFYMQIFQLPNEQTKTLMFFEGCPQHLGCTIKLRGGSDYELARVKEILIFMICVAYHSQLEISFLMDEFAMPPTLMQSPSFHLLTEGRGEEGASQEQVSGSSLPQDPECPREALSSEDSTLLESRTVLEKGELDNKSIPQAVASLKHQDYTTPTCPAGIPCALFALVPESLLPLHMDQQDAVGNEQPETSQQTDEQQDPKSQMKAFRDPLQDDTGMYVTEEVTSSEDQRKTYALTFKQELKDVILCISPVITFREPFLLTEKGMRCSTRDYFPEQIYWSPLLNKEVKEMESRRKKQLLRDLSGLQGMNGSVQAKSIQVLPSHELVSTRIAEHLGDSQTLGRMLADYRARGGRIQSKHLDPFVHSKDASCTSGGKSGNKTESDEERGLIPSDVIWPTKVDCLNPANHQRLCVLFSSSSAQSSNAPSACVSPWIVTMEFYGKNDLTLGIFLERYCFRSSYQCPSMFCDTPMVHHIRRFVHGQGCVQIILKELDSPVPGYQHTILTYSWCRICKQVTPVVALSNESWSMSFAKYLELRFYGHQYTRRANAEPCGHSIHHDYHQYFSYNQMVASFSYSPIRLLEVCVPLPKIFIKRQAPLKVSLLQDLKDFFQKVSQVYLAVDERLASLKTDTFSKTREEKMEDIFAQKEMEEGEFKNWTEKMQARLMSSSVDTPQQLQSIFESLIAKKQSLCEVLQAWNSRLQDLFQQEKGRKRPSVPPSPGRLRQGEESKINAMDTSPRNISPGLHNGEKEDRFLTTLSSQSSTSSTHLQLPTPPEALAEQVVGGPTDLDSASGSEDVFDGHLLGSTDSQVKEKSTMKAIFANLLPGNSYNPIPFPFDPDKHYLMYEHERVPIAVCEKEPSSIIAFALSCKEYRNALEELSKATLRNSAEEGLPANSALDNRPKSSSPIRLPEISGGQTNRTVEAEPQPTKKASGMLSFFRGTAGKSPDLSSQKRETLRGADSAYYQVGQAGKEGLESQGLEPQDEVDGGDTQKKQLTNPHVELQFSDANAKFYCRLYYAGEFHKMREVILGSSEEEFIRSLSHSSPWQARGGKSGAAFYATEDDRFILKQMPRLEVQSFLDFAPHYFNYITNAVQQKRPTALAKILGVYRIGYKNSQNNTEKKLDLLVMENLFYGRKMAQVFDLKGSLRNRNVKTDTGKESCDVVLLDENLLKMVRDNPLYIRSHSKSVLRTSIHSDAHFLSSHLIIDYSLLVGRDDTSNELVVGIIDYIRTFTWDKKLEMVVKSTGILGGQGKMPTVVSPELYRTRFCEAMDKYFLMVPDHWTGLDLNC

Assays:
[1] = target: endogenous VPS34 of NIH3T3 cells (mouse (endogenous in NIH3T3)) (UniProt Q6PF93); test: co-IP; NIH3T3 WCL, endogenous proteins; immunoprecipitation with anti-VPS34 antibody (or control IgG); TSC1, TSC2, PIKFYVE detected by Western blot; also in cells transfected with PIKFYVE siRNA for 48h
[2] = target: Myc-VPS34-WT (pcDNA3-Myc-hVPS34), expressed in NIH3T3 cells (human) (UniProt Q8NEB9); test: co-IP; NIH3T3 cells transiently transfected with Myc-VPS34 constructs; anti-Myc immunoprecipitation; endogenous TSC1 or TSC2 detected by Western blot
[3] = target: Myc-VPS34-H868R (pcDNA3-Myc-VPS34-H868R), expressed in NIH3T3 cells (human) (UniProt Q8NEB9); test: as above
[4] = target: endogenous TSC2 of NIH3T3 cells (mouse (endogenous in NIH3T3)) (UniProt Q61037); test: co-IP; NIH3T3 WCL, endogenous proteins; immunoprecipitation with anti-TSC2 antibody; TSC1 detected by Western blot
[5] = target: endogenous VPS34 of NIH3T3 cells (mouse (endogenous in NIH3T3)) (UniProt Q6PF93); test: co-IP; NIH3T3 WCL, endogenous proteins; immunoprecipitation with anti-VPS34 antibody (or control IgG); TSC1, TSC2, PIKFYVE detected by Western blot; also in cells transfected with PIKFYVE siRNA for 48h; remark: listed apart in the source
[6] = target: Myc-VPS34-H868R (pcDNA3-Myc-VPS34-H868R), expressed in COS-7 cells (human) (UniProt Q8NEB9); test: co-IP; COS-7 cells transiently co-transfected with Myc-TSC1 and Myc-VPS34 constructs; immunoprecipitation with anti-VPS34 antibody; detection with anti-Myc antibody
[7] = target: Myc-VPS34-WT (pcDNA3-Myc-hVPS34), expressed in COS-7 cells (human) (UniProt Q8NEB9); test: as above

binding [1]: binds
Molecule: endogenous PIKFYVE of NIH3T3 cells (from UniProt Q9Z1T6 1-2097) (enzyme)

binding [1]: no binding | binding [2]: no binding | binding [3]: no binding
Molecule: endogenous TSC2 of NIH3T3 cells (from UniProt Q61037 1-1814)

binding [4]: binds | binding [5]: binds | binding [2]: binds | binding [3]: binds
B1: endogenous TSC1 of NIH3T3 cells (protein, UniProt Q9EP53 1-1161)
chain: MAQLANIGELLSMLDSSTLGVRDDVTAIFKESLNSERGPMLVNTLVDYYLETNSQPVLHILTTLQEPHDKHLLDKINEYVGKAATRLSILSLLGHVVRLQPSWKHKLSQAPLLPSLLKCLKMDTDVVVLTTGVLVLITMLPMIPQSGKQHLLDFFDIFGRLSSWCLKKPGHVTEVYLVHLHASVYALFHRLYGMYPCNFVSFLRSHYSMKENVETFEEVVKPMMEHVRIHPELVTGSKDHELDPRRWKTLETHDVVIECAKISLDPTEASYEDGYSVSHQLSACFPYRSADVTTSPYVDTQNSYGGSTSTPSSSSRLMLFSPPGQLPQSLSSPSTRLLPEPLQASLWSPSAVCGMTTPPTSPGNVPADLSHPYSKAFGTTAGGKGTPSGTPATSPPPAPPCPQDDCVHGSAAQASATAPRKEERADSSRPYLHRQSNDRGLEDPPGSKGSVTLRNLPDFLGDLASEEDSIEKDKEEAAISKELSEITTAEADPVVPRGGFDSPFYRDSLSGSQRKTHSAASGTQGSSVNPEPLHSSLDKHGPDTPKQAFTPIDPPSGSADVSPAGDRDRQTSLETSILTPSPCKIPPQRGVSFGSGQLPPYDHLFEVALPKTACHFVSKKTEELLKKVKGNPEEDCVPSTSPMEVLDRLIEQGAGAHSKELSRLSLPSKSVDWTHFGGSPPSDELRTLRDQLLLLHNQLLYERFKRQQHALRNRRLLRKVIRAAALEEHNAAMKDQLKLQEKDIQMWKVSLQKEQARYSQLQEQRDTMVTQLHSQIRQLQHDREEFYNQSQELQTKLEDCRNMIAELRVELKKANNKVCHTELLLSQVSQKLSNSESVQQQMEFLNRQLLVLGEVNELYLEQLQSKHPDTTKEVEMMKTAYRKELEKNRSHLLQQNQRLDASQRRVLELESLLAKKDHLLLEQKKYLEDVKSQASGQLLAAESRYEAQRKITRVLELEILDLYGRLEKDGRLRKLEEDRAEAAEAAEERLDCCSDGCTDSLVGHNEEASGHNGETRTSRPGGTRASCGGRVTGGSSSSSSELSTPEKPPSQRFSSRWEPALGEPSSSIPTTVGSLPSSKSFLGMKARELFRNKSESQCDEDSVTMSSSSLSETLKTELGKDSGTENKTSLSLDAPHPSSPNSDNVGQLHIMDYNETHPEHS

binding [6]: binds | binding [7]: binds
B2: Myc-TSC1 (protein, UniProt Q92574 1-1164)
chain: MAQQANVGELLAMLDSPMLGVRDDVTAVFKENLNSDRGPMLVNTLVDYYLETSSQPALHILTTLQEPHDKHLLDRINEYVGKAATRLSILSLLGHVIRLQPSWKHKLSQAPLLPSLLKCLKMDTDVVVLTTGVLVLITMLPMIPQSGKQHLLDFFDIFGRLSSWCLKKPGHVAEVYLVHLHASVYALFHRLYGMYPCNFVSFLRSHYSMKENLETFEEVVKPMMEHVRIHPELVTGSKDHELDPRRWKRLETHDVVIECAKISLDPTEASYEDGYSVSHQISARFPHRSADVTTSPYADTQNSYGCATSTPYSTSRLMLLNMPGQLPQTLSSPSTRLITEPPQATLWSPSMVCGMTTPPTSPGNVPPDLSHPYSKVFGTTAGGKGTPLGTPATSPPPAPLCHSDDYVHISLPQATVTPPRKEERMDSARPCLHRQHHLLNDRGSEEPPGSKGSVTLSDLPGFLGDLASEEDSIEKDKEEAAISRELSEITTAEAEPVVPRGGFDSPFYRDSLPGSQRKTHSAASSSQGASVNPEPLHSSLDKLGPDTPKQAFTPIDLPCGSADESPAGDRECQTSLETSIFTPSPCKIPPPTRVGFGSGQPPPYDHLFEVALPKTAHHFVIRKTEELLKKAKGNTEEDGVPSTSPMEVLDRLIQQGADAHSKELNKLPLPSKSVDWTHFGGSPPSDEIRTLRDQLLLLHNQLLYERFKRQQHALRNRRLLRKVIKAAALEEHNAAMKDQLKLQEKDIQMWKVSLQKEQARYNQLQEQRDTMVTKLHSQIRQLQHDREEFYNQSQELQTKLEDCRNMIAELRIELKKANNKVCHTELLLSQVSQKLSNSESVQQQMEFLNRQLLVLGEVNELYLEQLQNKHSDTTKEVEMMKAAYRKELEKNRSHVLQQTQRLDTSQKRILELESHLAKKDHLLLEQKKYLEDVKLQARGQLQAAESRYEAQKRITQVFELEILDLYGRLEKDGLLKKLEEEKAEAAEAAEERLDCCNDGCSDSMVGHNEEASGHNGETKTPRPSSARGSSGSRGGGGSSSSSSELSTPEKPPHQRAGPFSSRWETTMGEASASIPTTVGSLPSSKSFLGMKARELFRNKSESQCDEDGMTSSLSESLKTELGKDLGVEAKIPLNLDGPHPSPPTPDSVGQLHIMDYNETHHEHS
